Results as given in the supplement of paper PMC3334620.
Whole data set: some 33,000 sequences, median “E-score (-0.5 to 0.5)” near -0.012, cut for the highest 2% near 0.27. Some of the results follow.

Each sequence was assayed against T1, Vhr1 (UniProt P40522) (assay: PBM E-score (8-mer binding enrichment) (E-score (-0.5 to 0.5)); higher = stronger / more preferred TF binding; most listed sequences are background and not binding sites). Conditions: protein concentration: 200 nM; construct: GST-full length.
T1 sequence: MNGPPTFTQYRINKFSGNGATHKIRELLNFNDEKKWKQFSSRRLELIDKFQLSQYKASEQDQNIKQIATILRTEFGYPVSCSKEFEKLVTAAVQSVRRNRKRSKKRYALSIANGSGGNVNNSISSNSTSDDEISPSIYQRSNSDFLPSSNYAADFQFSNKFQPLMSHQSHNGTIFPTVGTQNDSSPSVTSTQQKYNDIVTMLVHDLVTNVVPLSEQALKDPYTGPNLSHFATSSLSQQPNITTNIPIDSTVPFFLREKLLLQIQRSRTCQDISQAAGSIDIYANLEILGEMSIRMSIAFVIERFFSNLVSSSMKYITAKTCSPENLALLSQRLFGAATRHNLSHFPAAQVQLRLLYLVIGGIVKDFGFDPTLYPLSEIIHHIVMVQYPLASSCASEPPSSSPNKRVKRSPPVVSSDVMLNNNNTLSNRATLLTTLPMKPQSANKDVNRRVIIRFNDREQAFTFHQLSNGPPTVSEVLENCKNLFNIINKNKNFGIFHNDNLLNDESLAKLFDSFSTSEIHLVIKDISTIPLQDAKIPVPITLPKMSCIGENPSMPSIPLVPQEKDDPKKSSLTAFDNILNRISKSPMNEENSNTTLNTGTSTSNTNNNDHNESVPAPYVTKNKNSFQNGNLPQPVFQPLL
Outline: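 Bound GST-tagged yeast transcription factors, applied at about 100-200 nM to double-stranded universal all-10-mer Agilent arrays, were detected with fluorescent anti-GST. Scans were normalised with masliner. A modified Wilcoxon-Mann-Whitney statistic, the E-score, was assigned to each ungapped eight-base word pooled with its reverse complement by the Universal PBM Analysis Suite.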

Sequence | PBM E-score
ATTGTGAG | 0.143
AATAGACG | -0.0346
CCTCGCAG | -0.0348
ACGCCAAT | -0.0106
GAAATATA | 0.0204
CAAGAGAG | -0.178
CGCCTGTC | -0.206
CAGTCAGG | 0.175
ATCGTCAG | 0.0338
CTACTGCA | -0.133
ATCACTGA | 0.136
CAGGCCGG | -0.269
ACGAAATA | -0.123
GCCGTACC | 0.116
TAGATACA | -0.0628
AAGGCGTC | -0.166
AACCACAG | 0.237
GTCGAGGA | -0.221
ACCATGCC | 0.127
GCAGGGCC | -0.0834
AACGGTCA | 0.0912
CGACTTTC | -0.0185
GCACAGTA | 0.142
CATGGGAC | 0.02
CGCAAGAA | 0.0514

Sequence | PBM E-score
CCGAGACG | -0.0932
AACTGCCG | -0.194
GCAAGAAA | -0.071
ATCGTATC | 0.0818
AATACCGG | 0.0874
AGTCCTTG | -0.0382
GATGGCAA | 0.0306
GGACGGAC | 0.0805
TAAAGCTA | -0.189
CGCCGCTA | -0.0131
AGTGCCCA | -0.0649
CCTATAGC | -0.195
ACGTCATA | 0.0344
AACTGCCA | -0.0568
AGCGCATA | -0.0303
CGCTCAGA | 0.0321
CCTTCGGA | -0.231
AGCATACG | -0.0916
ATCCCACG | 0.0325
CTTAGGTC | -0.0837
CTCACTAA | 0.236
CTAATATC | 0.174
GCCAGATA | -0.154
ACCATCAA | -0.152
CCGTCAGC | -0.142

Sequence | PBM E-score
CACAATGG | 0.176
CATCATTA | 0.214
TTATATAA | 0.161
GAGCATGC | 0.106
AGCGGCGG | 0.269
AGCATATA | 0.224
CGCCCCAG | 0.0125
CCTTGATC | 0.18
ACATGAAG | -0.119
CCAACTGC | -0.0246
ACAGCGGA | 0.00585
AAGCGGGA | -0.0703
CACCGAGA | 0.107
AACCGCAC | 0.151
GGGTCAGA | -0.0746
CTCTACAA | -0.00129
AGATACAA | -0.0163
GATTAGAC | -0.0787
GCACATGC | -0.194
GGTGCTAC | -0.0576
CCGGATTA | 0.106
AGCGGACC | -0.167
CTGTCGCA | -0.138
ATAACGGC | -0.153
ATTGCTTA | -0.122

Sequence | PBM E-score
ACCAGAAT | 0.052
ACACATCG | 0.184
CATAAACG | -0.00907
GGCGTCAA | 0.0193
ACCCGCAT | 0.251
ATTTTGTG | -0.0326
CCACAGCG | 0.0478
GCCCGCCA | 0.13
CAGCTTAG | -0.0924
ATTTGCAC | -0.211
ATACTCAC | 0.17
CGTACATC | 0.00023
ATGAGGGG | -0.00734
GAGTAAGC | -0.00885
CGCGGCCA | -0.0423
GTAGCTTA | 0.00186
CATCCTCC | -0.0421
AGAACTTG | -0.0733
AATGGCTG | 0.0135
AAGCCAGC | 0.0934
CTTCTATC | -0.201
CCGGCCTA | 0.0535
CAACCCTA | -0.119
ATAGTCGC | 0.243
CGTGGCTC | 0.0649

Sequence | PBM E-score
ATGTGAGA | 0.0265
ATTACTCG | 0.198
ATACTGTG | 0.0981
ATCATTAC | 0.274
CCGCATTC | -0.105
ACCACTCA | 0.252
CCTCGCCC | 0.118
ACGGGGCT | -0.151
CTAATCAG | 0.0152
GTTGATTA | 0.239
CAGCACAA | 0.0898
ACAAGAAC | 0.169
CCGCCATC | 0.0291
TATCTACA | 0.114
GAGGTAAC | -0.0516
ATGTGCGC | -0.0331
CAGTGGAG | 0.0523
CGGCTTCA | -0.112
AGGCGTAG | -0.22
CGCTCGGC | 0.183
CCCGACCA | 0.105
ACAAGCAG | -0.105
CACTTGCG | -0.151
ACGGACGT | -0.0921
CAATTGCA | -0.101

Sequence | PBM E-score
GATGAGCA | 0.147
AATAGAAA | -0.209
CACAAAGC | 0.0284
GTCCGCAC | 0.133
AGAGTTTC | -0.274
GAACCCTA | 0.0459
CAGGAGTA | -0.00382
CGGATTTC | -0.0131
TCAGGGGA | 0.134
AAATCTCG | -0.0574
AGTCCCAT | -0.00349
TCTGTCCA | -0.0512
CAGTGAGG | -0.0597
GGTTCGAA | 0.123
CCTCTCAA | -0.219
CCCCGCAA | -0.00242
CCACCTTC | -0.0228
ACCCAACT | 0.108
AACCCCGC | 0.0566
AATGCTCG | -0.00963
CAAAAACA | -0.0404
AATTGTTA | -0.0275
CAATAAAC | -0.0223
CCCTTCCA | -0.235
GATTGAAC | 0.152

Sequence | PBM E-score
ACGATATC | 0.192
AACGAATC | 0.125
TACATGCA | 0.0058
ACCGATCA | 0.0148
ACTTTGCA | -0.0219
CCGTGTTC | 0.271
TACTCAAA | -0.0865
CCAGCCTA | 0.0883
ATTGGTAC | 0.173
ACGTTACA | -0.0568
AACAGCGG | -0.14
TCTCGAAA | -0.275
CGGGCTAG | -0.0423
GGTGGAAC | -0.253
TGCGGAAA | -0.216
CACTAGAG | -0.241
AGTCGCGG | 0.351
ACATATCC | 0.127
GAGCCTCC | 0.0236
TAGATGCA | -0.176
ACTGTTCC | -0.0237
AAATTGTC | -0.021
